“Also recorded” adds a separate entry of the source. For some assays here: Part of at least one peptide drawing is inferred or uncertain, most often the ends. Some entries share one result that the patent states for a list of compounds. Some ranges recur; such a range may be that of the whole group of compounds. Where a SMILES comes first, the peptide text is derived from it.
Key:
HEK293 cells = experiment: alamarBlue cell viability assay (cytotoxicity); format: cell-based, human; conditions: up until 32 μg/mL
Protocol: The human embryonic kidney cell line HEK293 and the corresponding growth media and supplements were purchased from the ATCC. The cells were maintained in Eagle's Minimum Essential Medium (EMEM) supplemented with 10% fetal bovine serum (FBS) and 1% Penicillin-Streptomycin solution and grown in a 5% CO2 incubator at 37° C. […] Cells were incubated overnight to allow them to adhere. […] TX-100 was diluted to 2% in UltraPure deionized water and added as a positive control. Complete growth medium was added to the peptides and TX-100 containing wells. Spent growth medium of wells with adhered cells was replaced with the contents of wells containing serially diluted peptides or TX-100. Cells were incubated for four hours at 37° C. in 5% CO2 incubator. Growth medium containing peptides or TX-100 was replaced with fresh growth medium containing 10% (v/v) alamarBlue (Bio-Rad Laboratories, Hercules, CA, USA) and incubated for 20 h. Fluorescence was measured at excitation of 540 nm and emission of 590 nm in a Cytation 5 plate reader (Agilent BioTek, Winooski, VT, USA) and results recorded and analyzed with Gen5 software (Agilent BioTek, Winooski, VT, USA). The average fluorescence reads of TX-100 and growth media only wells were used to calculate 0% and 100% cell viability, respectively. The percentage of viable cells at each peptide concentration was determined by Formula 1: […]

S. aureus ATCC 29213 = format: cell-based, Staphylococcus aureus
Protocol: (§1) Bacteria were grown overnight at 37° C. in Mueller-Hinton Broth (MHB; Sigma-Aldrich, St. Louis. MO, USA) in a shaking incubator and aliquoted into cryovials with a 50% glycerol solution in a 1:1 ratio. No additives were added to the MHB during the growth of bacterial isolates. Glycerol stocks were stored at −80° C.
(§2) The antimicrobial activity of the putative AMPs was determined by a broth microdilution assay as described by the Clinical and Laboratory Standards Institute, with the published adaptations for testing of cationic peptides. Escherichia coli 25922 and Staphylococcus aureus 29213 isolates were purchased from the American Type Culture Collection (ATCC; Manassas, VA, USA). A human clinical isolate of Salmonella enterica serovar Enteritidis was provided by the BC Centre for Disease Control. Bacteria from stocks stored at −80° C. were streaked onto nonselective Columbia blood agar with 5% sheep blood (Oxoid) and incubated overnight at 37° C. Next, 2-4 colonies were streaked onto a new agar plate to ensure uniform health of colonies used in the broth microdilution assay. Isolated colonies were suspended in MHB and the optical density was measured with a spectrophotometer to create an initial inoculum concentration of approximately 1×10^8 cfu/mL. The inoculum was diluted 1:250 to a final concentration of 2-8×10^5 cfu/mL, which was confirmed by performing a Total Viability Count (TVC). The TVC consisted of plating a 1:1000 dilution of the final inoculum on nonselective media and was also used to confirm the health and purity of the inoculum in each trial.
(§3) Lyophilized 80 μg peptide aliquots synthesized by GenScript (Piscataway, NJ, USA) were resuspended to 1.28 mg/mL with UltraPure water (Thermo Fisher Scientific, Waltham, MA, USA) and serially diluted in polypropylene 96-well microtiter plates (Greiner Bio-One #650261, Kremsmunster, Austria) from 128 down to 0.5 μg/mL. Two columns per plate were reserved for growth and sterility controls. […] The minimum inhibitory concentration (MIC) was determined as the lowest peptide concentration where there was no visible bacterial growth.

[1] = tested on: E. coli ATCC 25922, Salmonella Enteritidis, S. aureus ATCC 29213; experiment: Broth microdilution, panel result (at least one / all strains), Example 2; format: cell-based; design: key to inhibitory activity (asterisk): *Indicates inhibitory activity; conditions: for concentration exhibiting inhibitory activity against at least one strain: at least one of E. coli ATCC 25922, Salmonella Enteritidis, or S. aureus ATCC 29213
Method in brief: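 CLSI broth microdilution adapted for cationic peptides, in MHB with a final inoculum of 2-8×10^5 cfu/mL in polypropylene plates. Peptides were serially diluted from 128 down to 0.5 μg/mL and incubated 20-24 h at 37° C. MIC is the lowest concentration with no visible growth.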

[2] = tested on: Salmonella enterica serovar Enteritidis (human clinical isolate); format: cell-based
Protocol: as §1, §2, §3

E. coli ATCC 25922 = format: cell-based, Escherichia coli
Protocol: as §1
The antimicrobial activity of the putative AMPs was determined by a broth microdilution assay as described by the Clinical and Laboratory Standards Institute, with the published adaptations for testing of cationic peptides. Escherichia coli 25922 and Staphylococcus aureus 29213 isolates were purchased from the American Type Culture Collection (ATCC; Manassas, VA, USA). […] Isolated colonies were suspended in MHB and the optical density was measured with a spectrophotometer to create an initial inoculum concentration of approximately 1×10^8 cfu/mL. […]
as §3, with “μg/mL.” for “μg/mL. Two columns per plate were reserved for growth and sterility controls.”

SMILES	cells to which the peptide was toxic (HEK293 cells)	MIC against S. aureus (S. aureus ATCC 29213)	concentration exhibiting inhibitory activity against at least one strain [1]	MIC against Salmonella Enteritidis [2]	MIC against E. coli (E. coli ATCC 25922)	growth inhibition of S. aureus (S. aureus ATCC 29213; up to 128 μg/mL)	inhibitory activity (asterisk) ([1]; Table 14, against at least one of E. coli ATCC 25922, Salmonella Enteritidis, S. aureus ATCC 29213)	spectrum of antimicrobial activity ([1]; panel of E. coli, Salmonella Enteritidis, S. aureus, up to 128 μg/mL)
CC[C@H](C)[C@H](NC(=O)CNC(=O)[C@H](CCCNC(=N)N)NC(=O)[C@H](CC(C)C)NC(=O)[C@H](CC(C)C)NC(=O)CN)C(=O)N[C@@H](CC(C)C)C(=O)NCC(=O)N[C@@H](C)C(=O)NCC(=O)N[C@@H](CCCCN)C(=O)N[C@@H](CCCCN)C(=O)N[C@H](C(=O)N[C@H](C(=O)N[C@@H](CS)C(=O)NCC(=O)N[C@@H](CC(C)C)C(=O)N[C@@H](CO)C(=O)NCC(=O)N[C@@H](CC(C)C)C(=O)N[C@@H](CS)C(=O)O)C(C)C)[C@@H](C)CC [OdMa2] (H-GLLRGILGAGKKIVCGLSGLC-OH; N-terminus and C-terminus assumed)	less than 10%	4 to 8 µg/mL	lower than 128 ug/mL	8 to 16 µg/mL				
CC[C@H](C)[C@H](NC(=O)[C@H](CCCCN)NC(=O)CNC(=O)[C@H](CC(C)C)NC(=O)[C@H](CC(C)C)NC(=O)CN)C(=O)N[C@@H](CC(C)C)C(=O)NCC(=O)N[C@H](C(=O)NCC(=O)N[C@@H](CCCCN)C(=O)N[C@@H](CCCCN)C(=O)N[C@H](C(=O)N[C@@H](CC(C)C)C(=O)N[C@@H](CS)C(=O)NCC(=O)N[C@H](C(=O)N[C@@H](CO)C(=O)NCC(=O)N[C@@H](CC(C)C)C(=O)N[C@@H](CS)C(=O)O)C(C)C)C(C)C)C(C)C [PeNi9] (H-GLLGKILGVGKKVLCGVSGLC-OH; N-terminus and C-terminus assumed)		4 to 8 µg/mL	lower than 128 ug/mL	8 to 16 µg/mL	2 to 4 µg/mL			
CC(C)C[C@H](NC(=O)[C@H](CCCNC(=N)N)NC(=O)[C@@H]1CCCN1C(=O)[C@H](Cc1c[nH]cn1)NC(=O)[C@@H]1CCCN1C(=O)[C@@H]1CCCN1C(=O)[C@H](CCCNC(=N)N)NC(=O)[C@@H]1CCCN1C(=O)[C@@H]1CCCN1C(=O)[C@@H](NC(=O)[C@H](CCC(N)=O)NC(=O)[C@H](CCC(N)=O)NC(=O)[C@@H]1CCCN1C(=O)[C@H](CCCNC(=N)N)NC(=O)[C@@H]1CCCN1C(=O)[C@@H](N)CCCNC(=N)N)C(C)C)C(=O)N[C@@H](CCCNC(=N)N)C(=O)N[C@@H](CCCNC(=N)N)C(=O)O [PaVa1] (H-RPRPQQVPPRPPHPRLRR-OH)			lower than 128 ug/mL			did not inhibit growth of S. aureus at the concentrations tested	956.* RPRPQQVPPRPPHPRLRR	selectivity for the Gram-negative species tested; also recorded: antimicrobial activity against Gram-negative bacterial species but not Gram-positives
CC(C)C[C@H](NC(=O)CNC(=O)[C@@H](NC(=O)[C@@H](NC(=O)CNC(=O)[C@H](CS)NC(=O)[C@H](CC(C)C)NC(=O)[C@@H](NC(=O)[C@H](CCCCN)NC(=O)[C@H](CCCCN)NC(=O)CNC(=O)[C@@H](NC(=O)CNC(=O)[C@H](CC(C)C)NC(=O)[C@@H](NC(=O)[C@H](CCCCN)NC(=O)CNC(=O)[C@H](CC(C)C)NC(=O)[C@H](CC(C)C)NC(=O)CN)C(C)C)C(C)C)C(C)C)C(C)C)[C@@H](C)O)C(=O)N[C@@H](CS)C(=O)O [PeNi1] (H-GLLGKVLGVGKKVLCGVTGLC-OH; N-terminus and C-terminus assumed)	less than 10%		lower than 128 ug/mL	8 to 16 µg/mL				
CC(C)C[C@H](NC(=O)[C@H](CCCCN)NC(=O)[C@H](Cc1c[nH]c2ccccc12)NC(=O)[C@H](CC(C)C)NC(=O)[C@@H](NC(=O)[C@H](CC(C)C)NC(=O)[C@H](Cc1ccccc1)NC(=O)[C@H](CC(C)C)NC(=O)[C@@H](N)CCCCN)[C@@H](C)O)C(=O)N[C@@H](CCCCN)C(=O)N[C@@H](CCCNC(=N)N)C(=O)O [NaVi3] (H-KLFLTLWKLKR-OH; N-terminus and C-terminus assumed)			lower than 128 ug/mL					
CC[C@H](C)[C@H](NC(=O)[C@H](CCCNC(=N)N)NC(=O)[C@H](CCCNC(=N)N)NC(=O)[C@@H]1CCCN1C(=O)[C@H](CS)NC(=O)[C@H](CS)NC(=O)[C@H](Cc1ccc(O)cc1)NC(=O)[C@H](CS)NC(=O)[C@H](CC(C)C)NC(=O)[C@@H](NC(=O)[C@H](CCCNC(=N)N)NC(=O)[C@@H](NC(=O)[C@H](Cc1ccccc1)NC(=O)[C@H](C)N)C(C)C)[C@@H](C)CC)C(=O)N[C@@H](CCCCN)C(=O)N[C@@H](CCCNC(=N)N)C(=O)N[C@@H](CCCNC(=N)N)C(=O)O [TeRu2] (H-AFVRILCYCCPRRIKRR-OH; N-terminus and C-terminus assumed)			lower than 128 ug/mL					

— patent US20260242416A1, “ANTIMICROBIAL PEPTIDES” (priority 2023, published 2026)
